In patent US5512549A, “Glucagon-like insulinotropic peptide analogs, compositions, and methods of use” (Eli Lilly and Company, priority 1994, dated 1996):
Not every detail of the peptide structures is certain; ends, links or a residue may be inferred.

Legend:
[1] = test system: Sprague Dawley or Zucker Diabetic Fatty rats; test: Rat IV Glucose (1 g/kg) Tolerance Test; type: in vivo; conditions: for Insulin Change AUC: 0-15 min
Protocol: a) Glucose Tolerance Tests
Experiments were conducted in overnight-fasted, conscious, male Sprague Dawley (Charles River) or Zucker Diabetic Fatty (Genetic Models, Inc.) rats weighing approximately 250 (Sprague Dawley rats) or 300 (Zucker Diabetic Fatty rats) grams. Four to five days prior the study, rats were anesthetized with isoflurane, and a polyethylene (PE50) catheter was inserted into the right jugular vein. The catheter was secured with a wound clip, filled with saline containing heparin (2% sodium heparin), and closed with a small stainless steel plug.
After a sixteen-hour fast, twelve chronically cannulated rats were separated into four groups of three rats per group. 0.4 ml of blood was taken from the tail vein, collected into a microtainer tube containing lithium heparin, and immediately placed on ice (zero minute sample). A glucose bolus (1.0 g/kg; 50% glucose (w/v) in water) was administered via the indwelling jugular cannula, and the cannula was rinsed with 200 μl of saline. Twenty seconds later a bolus of test substance 100 μl/100 g body weight of either vehicle (saline containing 0.3% (w/v) bovine serum albumin) or vehicle containing analog! was administered through the jugular cannula, and the cannula was rinsed as before. Rats were bled from the tail again at 2, 5, 10, 20 and 30 minutes after the administration of the glucose bolus, and the samples were treated as described above. At the end of the experiment, blood samples were centrifuged, and the plasma was collected.
Plasma glucose concentrations were determined the day of the experiment using a coupled hexokinase procedure in a clinical chemistry analyzer. Plasma for insulin determinations were diluted with zero calibrator and frozen at -20° C. until time for analysis. Insulin concentrations were determined using a commercial radioimmunoassay kit with rat insulin as the standard.
Insulin change (the change in insulin from the baseline value) was calculated as the difference between the insulin concentration at time t and the insulin concentration at zero time. The area under the insulin change curve was calculated using the trapezoidal rule. Plasma glucose change (the increase in plasma glucose above the baseline value) was calculated as the difference between the plasma glucose concentration at time t and the plasma glucose concentration at zero time. The area under the plasma glucose change curve was calculated using the trapezoidal rule. Values are listed as the mean ± the standard error of the mean (SEM).

rat GLP-1 receptor = biological target: T1, rat GLP-1 receptor (Rattus norvegicus, UniProt P32301); test: cAMP Assay (in vitro receptor binding assay) on membrane preparation; type: biochemical; conditions: cAMP production, CHO membranes expressing rat GLP-1 receptor; mean ± spread
T1 construct: expressed in transfected cells; host or cells: CHO DXB-11 (Chinese hamster ovary) cells, used as a membrane preparation
T1 sequence (P32301 22-463): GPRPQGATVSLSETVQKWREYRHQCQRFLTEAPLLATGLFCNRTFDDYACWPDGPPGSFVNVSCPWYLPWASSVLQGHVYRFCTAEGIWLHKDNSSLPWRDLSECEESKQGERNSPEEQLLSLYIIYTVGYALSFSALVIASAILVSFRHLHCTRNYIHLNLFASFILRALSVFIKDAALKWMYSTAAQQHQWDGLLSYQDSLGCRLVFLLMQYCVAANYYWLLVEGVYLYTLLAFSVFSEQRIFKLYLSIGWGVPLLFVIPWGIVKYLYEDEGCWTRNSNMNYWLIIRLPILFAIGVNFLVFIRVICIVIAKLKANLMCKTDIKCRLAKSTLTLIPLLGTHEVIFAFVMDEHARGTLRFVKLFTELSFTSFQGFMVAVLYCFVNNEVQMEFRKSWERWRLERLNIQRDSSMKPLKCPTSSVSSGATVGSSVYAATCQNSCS

beagles = test: Dog I.V. Hyperglycemic (150 mg/dl) Clamp Test; type: in vivo; conditions: I.V. 1.0 μg/kg
Protocol: a) Hyperglycemic Clamp Studies
Experiments were conducted in overnight-fasted, conscious, adult (1-2 years of age) male and female beagles weighing 8-15 kg. At least ten days prior to the study, animals were anesthetized with isoflurane, and a cut-down was made in the left or right inguinal region. Silastic catheters were inserted into the femoral artery and the proximal caudal femoral vein and secured with 4-0 silk suture. The free ends of the catheters were passed subcutaneously to the back using a trocar needle. The catheters were then filled with a glycerol/heparin solution (3:1, v/v; final heparin concentration of 250 KIU/ml), and the free ends were knotted and placed in a subcutaneous pocket to allow complete closure of the skin. Keflex® was administered both pre-operatively (20 mg/kg, IV and 20 mg/kg, I.M.) and post-operatively (250 mg, p.o. once daily for seven days) to prevent infections. Torbugesic (1.5 mg/kg, I.M.) was administered post-operativelyto control pain.
Blood was drawn just prior to the study day to determine the health of the animal. Only animals with hematocrits above 38% and leukocyte counts below 16,000/mm^3 were used.
The afternoon before the experiment, the free ends of the catheters were exteriorized from the subcutaneous pocket through a small incision made under local anesthesia (2% lidocaine), and the dog was fitted with a tether system jacket and collar assembly.
The morning of the experiment, the contents of the catheters were aspirated, the catheters were flushed with saline, and extension lines (protected by a stainless steel tether) were attached to the catheters. On mornings of IV injection experiments, an over-the-needle, teflon catheter was inserted percutaneously into a cephalic vein in preparation for the administration of an IV bolus of test substance. The dog was placed in a metabolic cage, and the catheter extension lines and tether were attached to a swivel system to allow the dog to move freely about the cage. At this time (-60 minutes), an exogenous infusion of glucose (50% w/v in water) was begun through the chronic venous catheter. Glucose was infused in a descending stepwise fashion over the first six minutes of the study to rapidly raise the plasma glucose concentration to 150 mg/dl. Plasma glucose concentrations were determined every 2.5 to 7.5 minutes throughout the remainder of the study, and the glucose infusion rate was adjusted appropriately to maintain the plasma glucose concentration at 150 mg/dl.
Sixty minutes after the start of the glucose infusion (time 0), test substance was administered either intravenously (1.0, 2.9, 5.0 or 10.0 μg/kg; dose dissolved in 2 ml of saline containing 0.3% dog albumin, w/v) through the previously inserted teflon catheter or subcutaneously (10 μg/kg; 150 μM in phosphate buffered saline) in the dorsal aspect of the neck.
Arterial blood samples (3.5 ml) were taken at -30, -15, 0, 2.5, 5, 7.5, 10, 12.5, 15, 20, 30, 45, 60, 75, 90, 105 and 120 minutes during the IV studies and at -30, -15, 0, 3, 6, 9, 12, 15, 20, 30, 45, 60, 75, 90, 105 and 120 minutes during the SC studies. Samples were collected in vacuum blood collection tubes containing disodium EDTA and immediately placed on ice. To prevent proteolytic cleavage of GLP-1(7-37) in the plasma samples, 1.5 ml of the EDTA containing blood were transferred to a polypropylene tube containing 40 μl of aprotinin (10,000 KIU/ml) and mixed well. The samples were centrifuged, and the resulting plasma was transferred to polypropylene test tubes and stored on ice for the duration of the study.
At the conclusion of the experiment, the animal was anesthetized (isoflurane); the catheters were flushed with fresh saline and filled with the glycerol/heparin mixture; the free ends of the catheters were knotted and placed subcutaneously as described earlier; and antibiotic was administered (300 mg Keflex®, I.M.). […]

For `CC[C@H](C)[C@H](NC(=O)[C@H](Cc1ccccc1)NC(=O)[C@H](CCC(=O)O)NC(=O)[C@H](CCCCN)NC(=O)[C@H](C)NC(=O)[C@H](C)NC(=O)[C@H](CCC(N)=O)NC(=O)CNC(=O)[C@H](CCC(=O)O)NC(=O)[C@H](CC(C)C)NC(=O)[C@H](Cc1ccc(O)cc1)NC(=O)[C@H](CO)NC(=O)[C@H](CO)NC(=O)[C@@H](NC(=O)[C@H](CC(=O)O)NC(=O)[C@H](CO)NC(=O)[C@@H](NC(=O)[C@H](Cc1ccccc1)NC(=O)[C@@H](NC(=O)CNC(=O)[C@H](CCC(=O)O)NC(=O)[C@H](C)NC(=O)CCc1c[nH]cn1)[C@@H](C)O)[C@@H](C)O)C(C)C)C(=O)N[C@@H](C)C(=O)N[C@@H](Cc1c[nH]c2ccccc12)C(=O)N[C@@H](CC(C)C)C(=O)N[C@H](C(=O)N[C@@H](CCCCN)C(=O)NCC(=O)N[C@@H](CCCNC(=N)N)C(=O)NCC(=O)O)C(C)C` [N-imidazopropionyl-GLP-1(8-37)OH], the “Insulin Change at 10 min” value ([1]; IV dose 0.1 mg/kg) was 3.2 ng/mL, the “Max Insulin Change” value ([1]; IV dose 0.1 mg/kg) was 7.8 ng/mL and the “Insulin Change AUC” value ([1]; IV dose 0.1 mg/kg) was 70 ± 4 ng·min/mL. For the same compound, the “Insulin Change at 10 min” value ([1]; IV dose 0.2 mg/kg) was 5.0 ng/mL, the “Max Insulin Change” value ([1]; IV dose 0.2 mg/kg) was 10.2 ng/mL and the “Insulin Change AUC” value ([1]; IV dose 0.2 mg/kg) was 92 ± 6 ng·min/mL. For the same compound, the “Insulin Change at 10 min” value ([1]; IV dose 0.4 mg/kg) was 4.8 ng/mL, the “Max Insulin Change” value ([1]; IV dose 0.4 mg/kg) was 7.7 ng/mL and the “Insulin Change AUC” value ([1]; IV dose 0.4 mg/kg) was 74 ± 12 ng·min/mL. The “Insulin Change at 10 min” value ([1]; IV dose 0.8 mg/kg) was 7.5 ng/mL, the “Max Insulin Change” value ([1]; IV dose 0.8 mg/kg) was 13.3 ng/mL and the “Insulin Change AUC” value ([1]; IV dose 0.8 mg/kg) was 121 ± 16 ng·min/mL. The “Insulin Change at 10 min” value ([1]; IV dose 1.0 mg/kg) was 5.4 ng/mL, the “Max Insulin Change” value ([1]; IV dose 1.0 mg/kg) was 12.4 ng/mL and the “Insulin Change AUC” value ([1]; IV dose 1.0 mg/kg) was 98 ± 11 ng·min/mL. The “Insulin Change at 10 min” value ([1]; IV dose 2.0 mg/kg) was 5.9 ng/mL, the “Max Insulin Change” value ([1]; IV dose 2.0 mg/kg) was 16.1 ng/mL and the “Insulin Change AUC” value ([1]; IV dose 2.0 mg/kg) was 127 ± 24 ng·min/mL. The “% Relative Potency” value (rat GLP-1 receptor) was 21.9 ± 7.8%, the “GIR Change AUC” value (beagles; 0-60 min, mean ± SEM) was 399 ± 63 mg/kg and the “Insulin Change AUC” value (beagles; 0-60 min, mean ± SEM) was 52 ± 18 ng·min/mL. The “Max Insulin Change” value (beagles; 120 minute test period, mean ± SEM) was 3.1 ± 0.8 ng/mL and the “Duration of Insulin Effect” value (beagles; time average insulin change consistently ≥0.5 ng/ml) was 7.5 min.
